Measured values reported in PubChem BioAssay AID1159614 (National Center for Advancing Translational Sciences (NCATS), 2016).
Among all 45,000 compounds or so, about 65 (0.1%) were called active. The call rests on the fitted dose curve; in most records, active means well fitted activation curve with a large enough effect; inconclusive means small, poorly fitted or top-dose-only effect; inactive means no such curve, though single readings can be large or run the other way. The list shows a part of the results.

Target: Galactocerebrosidase (Homo sapiens) (UniProt P54803)
Sequence of UniProt P54803 (P54803 whole entry, looked up): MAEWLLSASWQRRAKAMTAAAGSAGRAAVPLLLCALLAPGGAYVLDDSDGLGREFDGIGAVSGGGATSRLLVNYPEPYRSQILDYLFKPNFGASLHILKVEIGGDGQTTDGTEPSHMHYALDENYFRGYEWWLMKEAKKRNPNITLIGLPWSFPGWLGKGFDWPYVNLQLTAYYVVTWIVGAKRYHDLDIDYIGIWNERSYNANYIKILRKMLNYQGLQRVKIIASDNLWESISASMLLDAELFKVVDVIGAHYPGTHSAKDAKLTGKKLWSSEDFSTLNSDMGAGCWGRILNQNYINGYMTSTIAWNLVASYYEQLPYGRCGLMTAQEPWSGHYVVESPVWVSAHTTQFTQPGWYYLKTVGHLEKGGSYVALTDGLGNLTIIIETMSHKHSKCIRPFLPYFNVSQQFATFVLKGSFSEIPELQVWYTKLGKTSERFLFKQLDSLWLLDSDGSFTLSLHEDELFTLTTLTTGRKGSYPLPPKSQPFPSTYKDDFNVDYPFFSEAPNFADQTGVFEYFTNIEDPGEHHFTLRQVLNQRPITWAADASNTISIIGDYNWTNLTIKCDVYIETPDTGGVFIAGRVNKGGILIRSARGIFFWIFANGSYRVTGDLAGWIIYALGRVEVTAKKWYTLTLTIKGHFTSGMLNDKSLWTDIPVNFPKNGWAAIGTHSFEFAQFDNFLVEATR
Assay: A Novel Cell-Based Assay to Identify Small Molecules for B -Galactocerebrosidase; further: 0% is about no effect; nearly all actives have a fitted effect of over 65% in size
Details: 145M-Twi-hGALC-G270D cells (Twitcher mouse brain line with human GALC G270D), HMU-beta-Gal fluorescence, 48 h; series mostly up to 57.5 µM; activation: at the top concentration
Outline: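 Live 145M-Twi cells (Twitcher mouse brain-derived, GALC-null) stably expressing human GALC-G270D, with a wild-type GALC line, were compound-treated. Residual GALC activity was then read as fluorescence from 0.1 mM final HMU-β-gal at pH 5.2; higher signal means activation.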

activation, inactive:
COc1cc(Cl)c(C)cc1NC(=O)c1cn(C2CCCC2)c(=O)c2c1c1ccccc1n2C -17.5%
COc1ccc(C(=O)Nc2ccc3nc(N4CCC(C)CC4)cc(C)c3c2)cc1 24.9%
O=C(c1cccc(Cl)c1)N1CCN(CCc2ccncc2)CC1 -8.85%
Cc1ccccc1-c1noc(CCC(=O)Nc2cccc(C)c2C)n1 -20.6%
O=C(Nc1cccc(OCc2cc(=O)n3c4c(sc3n2)CCCC4)c1)c1ccc(F)cc1 -6.35%
Cc1ccc2nc(-c3cc(NC(=O)/C=C/c4ccccc4)ccc3Cl)oc2c1 -14.4%
COc1ccc(-c2nc(CSc3nncn4c3cc3occc34)c(C)o2)cc1 -6.37%
COc1cc(C(=O)NS(=O)(=O)c2ccccc2C)ccc1Cc1cn(C)c2ccc(NC(=O)OC3CCCC3)cc12 -20%
CCOCCCNC(=O)C(Cc1ccccc1)NS(=O)(=O)c1ccc2c(c1)c(=O)n(C)c(=O)n2C (stereo unspecified) -9.08%
COc1ccc(Cl)cc1-n1c(/C=C/c2cccc3ccccc23)nc2ccccc2c1=O -20.8%
CCOc1ccc(NC(=O)c2cc(S(=O)(=O)N3CCCCC3)c[nH]2)cc1 20.7%
CN1C(C(=O)Nc2ccccn2)=C(O)c2sccc2S1(=O)=O -16.7%
Cc1ccc2oc(=O)c3cnn(CC(=O)N4CCN(c5cc(Cl)ccc5C)CC4)c3c2c1 -13.6%
COc1cccc(CNc2nc3c(-c4ccccc4)nnn3c3ccccc23)c1 2.71%
COc1ccc(CCNC(=O)Cn2c(=O)n(-c3cc(OC)c(OC)c(OC)c3)c(=O)c3ccccc32)cc1OC -21.9%
CN(Cc1ccccc1)C(=O)CSc1nc2ccsc2c(=O)n1-c1ccc(F)cc1 9.45%
CCOc1ccc(CCNCc2c(C(=O)O)n(Cc3ccc(C)cc3)c3cc(OC)ccc23)cc1 -7.81%
COc1cccc(NS(=O)(=O)c2ccc3[nH]cc(C(=O)NCCc4ccccc4)c(=O)c3c2)c1 -3.96%
CC(CSC(=O)c1ccccc1)C(=O)N1C[C@@H](Sc2ccccc2)C[C@H]1C(=O)O (stereo partly specified) -19.3% [at 23.8 µM]
O=S(=O)(c1ccccc1F)N1CCC(Oc2ccc(-n3cnnn3)cc2)CC1 -7.89%
CCc1ccccc1NC(=O)Cn1c(=O)n(CC2CCC(C(=O)NCCc3ccccc3)CC2)c(=O)c2ccccc21 (stereo unspecified) 5.52%
COc1ccc(NC(=O)CCc2nnc3n(C)c(=O)c4sccc4n23)cc1Cl 3.45%
CCn1cc(C(=O)NCCCN(CC(C)C)CC(C)C)c(=O)c2cc(S(=O)(=O)N(C)C3CCCCC3)ccc21 -8.25%
COc1cccc(N2C(=O)N(Cc3ccc(C#N)cc3)c3ccccc3S2(=O)=O)c1 -4.38%
COc1ccc(-c2noc(-c3ccc(NCc4cccnc4)c([N+](=O)[O-])c3)n2)cc1 1.46%
CCC(=O)N1CCc2cc(Br)cc(S(=O)(=O)CCC(=O)Nc3ccc(C)c(C)c3)c21 -14.1%
CCc1ccc(NC(=O)C(=O)NCC(c2ccc3c(c2)OCO3)N2CCOCC2)cc1 (stereo unspecified) -8.78%
Cc1ccc(S(=O)(=O)c2nc(-c3ccccc3Cl)oc2N2CCCCCC2)cc1 -33.4%
COc1ccc(C2=NS(=O)(=O)N(C)C(C(=O)NCc3ccccc3)=C2)cc1OC -19%
Cc1ncc([N+](=O)[O-])n1CC(O)CCl (stereo unspecified) -3.66%
Cc1ccc(Cl)c(NC(=O)Nc2csc3c2CCCC3)c1 -12%
CCn1c(=O)n(-c2ccc(F)c(Cl)c2)c(=O)c2c3c(sc21)CN(C(C)=O)CC3 -16.8%
COc1cccc(C(=O)Nc2ccc(-c3nc4ccccc4s3)cc2Cl)c1 -1.55%
CCOC(=O)c1nc(N2CCN(c3ccc(F)cc3)CC2)c2c(C)noc2n1 -5.17%
CCCC(=O)N(c1ccc2oc(C)c(C(C)=O)c2c1)S(=O)(=O)c1ccc(C)cc1 -29.6%
COc1ccc(NC(=O)CCCc2nnc3n(CCC(C)C)c(=O)c4sccc4n23)c(OC)c1 -20.9%
COc1ccc(-c2csc3nc(-c4ccc(F)cc4)oc(=O)c23)cc1 8.13%
COCCNC(=O)c1ccc(-n2c(-c3ccccc3)cc3c2CCCCC3)cc1 1.69%
COc1cccc(N2C(=O)CSC23C(=O)N(Cc2ccccc2)c2ccccc23)c1 (stereo unspecified) -19%
Cc1ccc(C)c(CSc2cn(CC(=O)N3CCCCCC3)c3ccccc23)c1 -17.7%
CCOC(=O)c1cnc2ccc(C(=O)OC)cc2c1Nc1ccccc1CC -29.2%
Cc1ccccc1Cn1nnc2c(=O)[nH]c(C3CCN(C(=O)c4ccccc4)CC3)nc21 -11.6%
CCOc1ccc(C2c3[nH]c4ccccc4c3CCN2C(=O)Cc2cccc(OCC)c2OCC)cc1 (stereo unspecified) -8.64%
Cc1cc(C)cc(-n2ccnc2SCC(=O)Nc2nc3ccccc3s2)c1 -31.3%
COc1ccc(-c2nc3sc(CCNC(=O)c4cccc(C(F)(F)F)c4)c(C)n3n2)cc1 -23.3%
CCOC(=O)c1c(S(=O)(=O)NCC(=O)Nc2ccc(C)c(Cl)c2)c(C)n(C)c1C -4.73%
CCC(C(=O)NCc1ccccc1OC)n1nc(C)n2c(cc3sccc32)c1=O (stereo unspecified) -7.26%
CC(C)(C)n1cnc2cc(NCc3ccccc3Cl)ccc21 -10.6%
COc1ccc(NC(=O)C2CCCN2S(=O)(=O)c2cccc3cccnc23)cc1OC (stereo unspecified) -9.95%
CC(C)Oc1ccc(CNC(=O)c2ccc(NC(=O)N3CCSc4ncccc43)cc2)cc1 0.657%
CSc1ncc(C(=O)NCc2ccccc2)c(-c2ccccc2)n1 -3%
Cc1ccc(C)c(Nc2nn3c(=O)c4ccc(C(=O)NCCc5ccccc5)cc4nc3s2)c1 -4.69%
CN(C)c1ccc(CNC(=O)C2CCN(S(=O)(=O)c3ccc4c(ccn4C)c3)CC2)cc1 -7.8%
COc1ccc(C(=O)Nc2nc3c(s2)CCc2cc(OC)ccc2-3)cc1 10.6%
COCCCn1c(SCC(=O)NCc2ccccc2)nc2c(sc3ccccc32)c1=O -1.12%
CCN(C(=O)Cn1cc(S(=O)(=O)Cc2ccccc2Cl)c2ccccc21)c1ccccc1 -11%
CN(C)c1ccc2nc3ccc(=[N+](C)C)cc-3sc2c1 -14.9%
Cc1ccc(C)c(N2CCN(C(=O)Cn3c(-c4cccs4)cc4ccccc43)CC2)c1 -12.2%
Cc1n[nH]c(C)c1S(=O)(=O)N1CCCC(C(=O)Nc2ccc(Cl)cc2)C1 (stereo unspecified) -26.5%
Cc1ccc(N2CCN(C(=O)c3c4c(nc5ccccc35)C(=O)N(C3CCCCC3)C4)CC2)c(C)c1 -9.08%
C[C@@H](CN(C)C)CN1c2ccccc2Sc2ccccc21 -14.5%
CCOC(=O)c1ccc(NC(=O)C(CC)Sc2nc3ncccc3o2)cc1 (stereo unspecified) -6.22%
CCOc1cc(C2c3c(oc4ccc(F)cc4c3=O)C(=O)N2Cc2ccco2)ccc1O (stereo unspecified) -15.3%
Cc1ccc(-n2c(SCC(=O)Nc3ccc4c(c3)OCO4)nc3c([nH]c4ccccc43)c2=O)cc1 -16.8%
Cc1ccc(-c2cc(C(=O)NCc3cnn(C)c3)c3cc(Br)ccc3n2)cc1 -7.92%
COc1ccc(C2C(=O)c3ccccc3C2=O)cc1 -9.68%
CCCCNc1nc(Oc2ccc(OCC(N)=O)nn2)nc(N2CCOCC2)n1 -8.61%
Cc1ccc(-n2ncc3c(N4CCN(CCO)CC4)ncnc32)cc1Cl -14.6%
COc1ccc(CCNc2ncnc3c2c(-c2ccccc2)cn3-c2ccc(F)cc2)cc1OC 0.853%
CCC(=O)C1=C(c2cccc([N+](=O)[O-])c2)N(C(=O)CC)n2c(nnc2-c2ccccc2)S1 -23.3%
CCc1ccccc1N(C)C(=O)c1cnc(N2CCOCC2)c2ccccc12 -10.7%
Cc1cccc(C(=O)N2CCc3cc(CNC(=O)Cc4ccc(F)cc4)ccc32)c1 -45%
Cc1ccc(Cc2nc3ccccc3nc2SCC(=O)NCc2ccc(F)cc2)cc1 -15.6%
Cc1cc(Br)ccc1NC(=O)c1cn(C2CCCC2)c(=O)c2c1c1ccccc1n2C -11.7%
O=C(Nc1ccc(SC(F)F)cc1)c1cc(-c2cccs2)on1 -12.3%
CC1CCN(C(=O)CN2CCSc3ccccc32)CC1 -7.8%
CC(NC(=O)c1nn(C)c2c1CSc1ccccc1-2)c1ccccc1 (stereo unspecified) -10.7%
COC(=O)c1sc2cccc(F)c2c1S(=O)(=O)N1CCN(c2ccccc2OC)CC1 -5.12%
CCNc1nc2c(c(=O)[nH]c(=O)n2C)n1CC(O)COc1ccc(Cl)cc1Cl (stereo unspecified) -19.9%
O=C(CCS(=O)(=O)c1cccs1)Nc1ccc(C(=O)Nc2cccc(Cl)c2)cc1 0.51%
COc1cc(OC)cc(C(=O)N2CCC(c3ccncc3)CC2)c1 -1.72%
COc1ccc(N2CC(c3nc(-c4cc(OC)c(OC)c(OC)c4)no3)CC2=O)cc1Cl (stereo unspecified) -3.1%
O=C(Cc1ccccc1)Nc1c(C(=O)N2CCN(c3ccc(F)cc3)CC2)oc2ccccc12 -17.8%
COc1ccc(CNc2ccc3cc(S(=O)(=O)N4CCCCC4)ccc3n2)cc1 -14.6%
Cc1ccc(C)c(NC(=O)CN2C(=O)CSc3nc(C)cc(C)c32)c1 -16.2%
O=C(NCCc1ccccc1)c1ccc2c(c1)CCN2S(=O)(=O)c1ccc(Br)cc1 -12.6%
CCOc1ccc(C(=O)Nc2nnc(S(=O)(=O)N(CC)c3ccccc3C)s2)cc1 -15.4%
CC(=O)c1cccc(NC(=O)CCCN2C(=O)COc3ccc(C)cc32)c1 9.03%
Cc1cc(C)c2c(=O)c3c(oc2c1)C(=O)N(Cc1ccc(F)cc1)C3c1cccc(O)c1 (stereo unspecified) -1.31%
CCCC(=O)NCC(c1ccc2c(c1)OCO2)N1CCOCC1 (stereo unspecified) -20.3%
O=C(COc1ccc(Cl)cc1)Nc1ccccc1C(=O)OCc1cc(=O)n2ccsc2n1 -11.3%
COc1ccccc1CNC(=O)CN1C(=O)CSc2c1c(C)nn2-c1ccccc1 -8.47%
Cc1ccc(CNC(=O)CN(c2ccc(C(C)C)cc2)S(=O)(=O)c2c(C)n[nH]c2C)cc1 -8.48%
COc1cccc(NC(=O)CN2CCCN(S(=O)(=O)c3ccc(Br)cc3)CC2)c1 -17.3%
COc1ccc(Cn2ccnc2SCC(=O)Nc2ccc(C)cc2C)cc1 -14.5%
CC(C)(C)CC(=O)Nc1nnc2n1CCS2 -11.3%
